# In all, about 310,000 compounds went through this assay and about 14,000 (4.5%) showed an effect of 50% or more. Effects have a minus sign here. The list shows a part of the results. Where a SMILES comes first, the peptide text is derived from it. The star is where a group is joined. Cbz = O=C(OCc1ccccc1)*
# Biological target: human ether-à-go-go-related gene (hERG) potassium channel (human, UniProt Q12809)
# Test: primary screen, population patch clamp on CHO cells stably expressing hERG
# 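Further: peak tail current of the secondary pulse compared with the same well before compound.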
# Chain of human ether-à-go-go-related gene (hERG) potassium channel (Q12809 whole entry, looked up): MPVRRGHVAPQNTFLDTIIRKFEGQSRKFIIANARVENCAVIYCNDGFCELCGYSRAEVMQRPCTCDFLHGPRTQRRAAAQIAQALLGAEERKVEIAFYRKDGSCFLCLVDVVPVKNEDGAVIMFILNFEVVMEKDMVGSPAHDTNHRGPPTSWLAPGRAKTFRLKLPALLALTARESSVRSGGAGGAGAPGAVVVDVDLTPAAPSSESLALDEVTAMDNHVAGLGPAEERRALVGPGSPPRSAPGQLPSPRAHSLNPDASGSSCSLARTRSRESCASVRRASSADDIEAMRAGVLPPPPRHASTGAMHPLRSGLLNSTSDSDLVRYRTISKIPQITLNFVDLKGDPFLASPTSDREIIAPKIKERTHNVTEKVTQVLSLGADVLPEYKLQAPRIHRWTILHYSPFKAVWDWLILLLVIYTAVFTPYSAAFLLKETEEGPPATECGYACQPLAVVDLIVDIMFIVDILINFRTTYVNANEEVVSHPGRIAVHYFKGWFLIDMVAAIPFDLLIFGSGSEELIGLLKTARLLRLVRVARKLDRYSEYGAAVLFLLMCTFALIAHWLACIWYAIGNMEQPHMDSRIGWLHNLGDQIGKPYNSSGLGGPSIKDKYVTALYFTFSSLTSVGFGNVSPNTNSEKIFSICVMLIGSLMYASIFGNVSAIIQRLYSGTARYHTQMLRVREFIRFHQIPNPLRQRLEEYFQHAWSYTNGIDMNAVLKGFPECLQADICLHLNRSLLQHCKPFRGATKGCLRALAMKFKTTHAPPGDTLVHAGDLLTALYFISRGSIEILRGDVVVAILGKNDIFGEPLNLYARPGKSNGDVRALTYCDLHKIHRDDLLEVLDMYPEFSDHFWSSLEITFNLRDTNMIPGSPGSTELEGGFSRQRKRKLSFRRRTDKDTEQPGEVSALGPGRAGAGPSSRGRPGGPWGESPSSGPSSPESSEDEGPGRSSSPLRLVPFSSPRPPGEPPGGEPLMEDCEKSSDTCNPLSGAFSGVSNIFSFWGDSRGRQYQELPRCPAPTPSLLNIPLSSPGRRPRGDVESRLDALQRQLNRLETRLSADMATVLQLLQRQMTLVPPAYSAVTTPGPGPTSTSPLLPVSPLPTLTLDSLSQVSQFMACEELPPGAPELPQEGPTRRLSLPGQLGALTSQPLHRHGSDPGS
row,Structure (SMILES),"hERG current change (%, negative = inhibition) at 10uM [%]"
1,O=C(COC(=O)/C=C/c1ccco1)Nc1ncc(Cl)cc1Cl,2.35
2,C=CCOc1ccc(/C=C/C(=O)OCC(=O)NC2CCCCCCC2)cc1,20.4
3,O=C(CN1CCOCC1)NCCC12CC3CC(CC(C3)C1)C2,-9.62
4,COc1cccc(NC(=O)CN2C(=O)NC(c3ccccc3)(c3ccccc3)C2=O)c1,3.39
5,O=C(O)c1c(-c2ccc(Cl)cc2)cn2ccccc12,21.2
6,CCOc1nc2cnccc2n(CC(=O)Nc2c(F)c(F)cc(F)c2F)c1=O,15.2
7,COc1cccc(OCC(=O)Nc2c3c(nn2-c2ccc(F)cc2)CS(=O)(=O)C3)c1,6.63
8,CC1CCCCN1C(=O)COC(=O)CNC(=O)c1sc2ccccc2c1Cl (stereo not shown),-7.18
9,CCN(C(=O)Cn1cnc2c1c(=O)n(C)c(=O)n2C)C1CCS(=O)(=O)C1 (stereo not shown),1.71
10,CSc1ncccc1C(=O)OCC(=O)c1ccc(S(=O)(=O)N2CCCCC2)cc1,23.5
11,Cc1c(Cl)cccc1NC(=O)NNC(=O)CCc1ccccc1,19.9
12,O=C(CN1C(=O)NC2(CCCCCC2)C1=O)N1CCCCC1,-2.23
13,O=C(Cc1ccc(Cl)cc1)N1CCOCC1,5.91
14,Cc1nc2sccn2c(=O)c1S(=O)(=O)N1CCN(c2cccc(C(F)(F)F)c2)CC1,-30.2
15,O=C1CSC(=Nc2ccccc2)N1,2.24
16,CCOC(=O)N1CCN(C(=O)c2cccn3c(=O)c4sccc4nc23)CC1,-35.9
17,Cc1ncoc1C(=O)N1CCCC(C(=O)c2ccc(C(F)(F)F)cc2)C1 (stereo not shown),-10.6
18,Oc1[nH]c2ccc(Br)cc2c1N=Nc1ccc(F)cc1,15.7
19,COc1ccc(NC(=O)CN(C)C(=O)CC2CCCCC2)cc1,3.71
20,COCC(=O)NC1CCN(S(=O)(=O)c2cccc(C(C)=O)c2)CC1,26
21,COc1ccc(CC(=O)Nc2ccc(S(=O)(=O)Nc3cc(C)on3)cc2)cc1,-6.3
22,CC(C)CC(=O)N1CCN(c2ccc([N+](=O)[O-])c(NCc3ccccc3)c2)CC1,-10.7

row,Structure (SMILES),"hERG current change (%, negative = inhibition) at 10uM [%]"
1,CCOc1ccc(/C=N/NC(=O)c2ccc(Cn3cc(Br)cn3)o2)cc1,-56.4
2,Cc1ccc(C(C(=O)NCC2CCCO2)N(Cc2ccccc2F)C(=O)Cn2nnc(-c3cccs3)n2)cc1 (stereo not shown),8.8
3,O=C(Nc1nccs1)[C@@H]1CC=C[C@@H]2CCN(Cc3ccccc3)C(=O)[C@@H]21,4.85
4,O=C1c2cc(F)ccc2OC2(CCNCC2)C12CC(c1ccccc1)=NO2 (stereo not shown),0.947
5,CC1=NN(C(=O)c2ccoc2C)C(O)(C(F)(F)F)C1 (stereo not shown),10
6,COc1ccc(CC2(CO)CCN(S(=O)(=O)c3c(C)nn(C)c3C)CC2)cc1,7.76
7,CC(=NCCc1c[nH]c2ccccc12)c1c(O)n(Cc2ccccc2)c(=O)[nH]c1=O,0.859
8,COc1cc(C2=CCN(C(C)=O)CC2)ccc1OC(C)=O,14.8
9,COc1cc(S(=O)(=O)Nc2ccncc2)ccc1F,49.5
10,CC(=O)Oc1ccccc1-c1nc(/C=C/c2ccccc2)no1,14.3
11,CCOC(=O)C1CCN(c2ccccc2CN2CCN(c3ccccc3OCC)CC2)CC1,-46.3
12,Cc1cc(C(=O)N/N=C2/CC(C)CC(C)(C)C2)c(C)o1 (stereo not shown),-8.27
13,CCCC(=O)Nc1ccc(NC(=O)Cc2ccccc2)cn1,-0.677
14,COc1ccccc1CNC(=O)Cn1nnnc1CN(C)C(C)C,12.6
15,COc1cccc(CC(=O)OCc2csc(CC(=O)Nc3ccccc3C)n2)c1,2.62
16,Cc1ccc(C(=O)N2CCN(c3ccc(F)cc3)CC2)cc1S(=O)(=O)N1CCCCC1,-54
17,COc1ccc(/C(O)=C2/C(=O)C(=O)N(c3ncccn3)C2c2ccc(OC)c(OC)c2)cc1 (stereo not shown),-2.51
18,Cc1cc(C)c(C)c(OCC(=O)N2CCOCC2)c1,9.36
19,CNC(=O)COC(=O)c1nc(-n2nc(C)cc2C)ccc1Cl,3.29
20,O=C(c1ccc(CS(=O)(=O)c2ccc(Br)cc2)o1)N1CCCCCC1,-22
21,COCCOC1CCN(C(=O)C2CCC(=O)N(CCc3ccc(OC)cc3)C2)CC1 (stereo not shown),37.2
22,C1CCCN(C2CCNCC2)CC1.Cl,29.3

row,Structure (SMILES),"hERG current change (%, negative = inhibition) at 10uM [%]"
1,CN1C(=O)C2(OCCCO2)c2ccccc21,24.4
2,Cc1ccnc(NC(=O)c2ccc(Cl)c(NC(=O)C(C)Oc3ccccc3)c2)c1 (stereo not shown),1.41
3,O=C(NCCc1ccccc1)C1CCC(=O)N(CCCN2CCCC2=O)C1 (stereo not shown),5.82
4,COc1ccc2nc(Nc3nc(C)c(CCC(C)C)c(=O)[nH]3)nc(C)c2c1,-24.9
5,Cc1cc(C)c2sc(N(CCCN(C)C)C(=O)c3ccc(S(=O)(=O)N(C)C4CCCCC4)cc3)nc2c1.Cl,-81.4
6,O=C1CC(=O)N(c2ccccc2)N1c1ccccc1,3.41
7,COc1cccc(-c2ncc3ccccn23)c1.O=C(O)C(=O)O,-5
8,CCn1c(=O)n(CC)c2cc(S(=O)(=O)Nc3c(C)cccc3C)ccc21,-1.8
9,CCc1nn(C(C)C(=O)N(C)Cc2ccccc2)c(=O)c2cc3occc3n12 (stereo not shown),12.2
10,O=C(O)c1cccc(NC(=O)c2ccc3c(c2)C(=O)N(C2CCCCC2)C3=O)c1,8.62
11,Cc1cccc(NS(=O)(=O)c2ccc(C(C)(C)C)cc2)n1,12.5
12,Cc1ccc(Cl)c(NC(=O)CN2CCN(C=O)CC2)c1,2.38
13,COc1ccc(CCN(C(=O)C(F)(F)F)C(C(=O)NC2CCCCC2)c2ccc(C)s2)cc1 (stereo not shown),5.37
14,CN(C)c1cccc2c1C(=O)c1ccccc1C2=O,-14.1
15,Cc1c(C(c2ccccc2)c2c(C)n(C)n(-c3ccccc3)c2=O)c(=O)n(-c2ccccc2)n1C,7.89
16,CCOc1ccccc1N1CCN(C(=O)CN2C(=O)NC3(CCCC3)C2=O)CC1,-2.82
17,Fc1cccc(F)c1/C=N/NC(=S)Nc1cccnc1,-14.3
18,CCOC(=O)c1ccc2c(c1)[n+](CC)c(C)n2-c1ccccc1.[I-],12.9
19,COc1cc([C@@H]2CC=C(C(=O)O)[C@H](c3ccc(F)cc3)N2S(=O)(=O)c2ccc(C)cc2)cc(OC)c1OC,10.7
20,Cc1cccc(Cn2c(Sc3nc(C)cs3)nc3c2c(=O)[nH]c(=O)n3C)c1,-1.99
21,CS(=O)(=O)N1CCC(C(=O)c2cccc(Cl)c2)CC1,-0.907
22,Cc1c(C(=O)N2CCOCC2)sc(NC(=O)Cc2ccccc2)c1C#N,-8.42

row,Structure (SMILES),"hERG current change (%, negative = inhibition) at 10uM [%]"
1,COc1cccc(C2CCN(CC(=O)Nc3cc(Cl)ccc3OC)CC2O)c1 (stereo not shown),9.52
2,CC(C)c1ccc(N(CC(=O)N2CCN(Cc3ccccc3)CC2)S(C)(=O)=O)cc1,-3.3
3,Cc1ccc(F)cc1NC(=O)COC(=O)C1CCN(c2ccc(C(F)(F)F)cn2)CC1,20.8
4,O=[N+]([O-])c1ccc(-c2cnc3ccccc3n2)cc1,8.3
5,CCOC(=O)CC1(CC(=O)OCC)NC(=O)c2c(C)sc(C(=O)OCC)c2N1,7.04
6,CCOC(=O)c1c(S(=O)(=O)NCC(=O)Nc2cc(C)ccc2OC)c(C)n(C)c1C,10.3
7,Cc1c(Cl)cnc(NC(=O)CSc2nncs2)c1Cl,-9.24
8,CC(=O)Nc1cccc(C(=O)OCc2ccc([N+](=O)[O-])cc2)c1,-39.4
9,CC1CC(C)CN(C(=O)Cn2nnc(-c3ccccc3)n2)C1 (stereo not shown),-33.5
10,CCOc1ccc(C(=O)Nc2ccc(S(=O)(=O)Nc3cc(C)on3)cc2)cc1,-9.73
11,Cc1ccc(S(=O)(=O)/N=C2/NC(=O)/C(=C/c3ccc(Br)o3)S2)cc1,24
12,Nc1cc(=O)[nH]c(SCC(=O)Nc2cccc([N+](=O)[O-])c2)n1,11.3
13,COc1ccc(NC(=S)N/N=C/c2cccn2Cc2ccc(F)cc2)cc1,19.8
14,CC(=O)Nc1ccc(S(=O)(=O)N2CCSC2c2ccccc2Cl)cc1 (stereo not shown),9.43
15,CC1CCc2nc(NC(=O)CN3CCOCC3)sc2C1 (stereo not shown),-4.5
16,Cc1ccc(C)c(NS(=O)(=O)c2ccc(-c3cnc(C4CC4)o3)cc2)c1,4.27
17,Cc1ccccc1C(=O)Nc1ccc(-c2nnc(SC(C)C(=O)O)n2C)cc1 (stereo not shown),24.8
18,O=C(NNc1cccc(Cl)n1)Nc1ccc(F)cc1,9.8
19,Cc1ccc(-c2nn(-c3ccccc3)cc2/C=N/O)cc1,18.6
20,COCCN1CCC(CNCc2cn[nH]c2-c2ccc(C)c(C)c2)C1 (stereo not shown),-3.39
21,Cc1nc(N)sc1-c1nnc(SCC(=O)Nc2nccs2)n1C,-12.6
22,C[C@H](NC(=O)OCc1ccccc1)C(=O)N[C@@H](Cc1c[nH]c2ccccc12)C(=O)O (Cbz-Ala-Trp-OH),3.65
